Laboratory results: PubChem BioAssay AID662 (National Center for Advancing Translational Sciences (NCATS), 2007)
The whole screen tested about 71,000 compounds, of which about 1,800 (2.5%) were called active. The inconclusive results got no clear call from the source; some entries with a clear call stand among them for comparison. Calls follow the shape of the dose curve; as a rule, active = well fitted activation curve with a large enough effect in the signal ratio, with a control signal flat (not every such curve was filed as active); inconclusive = small, poorly fitted or top-dose-only effect, or effect the other way, or a change in a side signal; inactive = flat fitted curve, though single readings scatter; the % refers to the signal ratio. A potency beside an inconclusive call is a rough fit, not a confirmed value.
Potency is read from the fitted curve at half-maximal effect; tags tell the direction and shape of the fitted curve.

Assay: Cell signaling CRE-BLA (Fsk stim); as to activity change, negative = inhibition: % of control where 0% means no effect
Conditions: CHO CRE-bla reporter (cAMP response element driving beta-lactamase), forskolin EC10, beta-lactamase ratio; activity change, negative = inhibition: at 38.2 µM (top of the series) unless noted
Procedure, shortened: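 AC50 values, positive or negative, reflect shifts in EC10 NKH 477-induced CRE-bla reporter activity in CHO cells. Incubation lasted 3 h at 37 °C before CCF4 substrate (2 h, room temperature) and ratiometric 460/530 nm reading.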
For `COCC(=O)NCCc1ccc(S(N)(=O)=O)cc1`, the activity change, negative = inhibition was inconclusive: -5.19% [at 7.6 µM].
With `COc1ccc(C(NC(C)=O)c2ccc3cccnc3c2O)c(OC)c1` (centres undefined) the activity change, negative = inhibition was “inactive”.
With `Cc1ccc(C(=O)OCc2cc3ccccc3[nH]c2=O)cc1` the activity change, negative = inhibition was inconclusive: -4.59%.
In the case of `O=C(Cn1nnc(-c2ccccc2NC(=O)c2cccs2)n1)Nc1ccccc1`, the Potency is reported as inconclusive: 12.6 µM [rising, single point].
For `CCOC(=O)N1CCN(c2ccc(Cl)c(Cl)c2)CC1`, the activity change, negative = inhibition was inconclusive: -20.3%.
For `CCc1c(C)nc2ncnn2c1N1CCC(C(=O)NCc2cccc(OC)c2)CC1`, the Potency was inconclusive: 10 µM [rising, partial curve].
For `Cc1ccc(-c2nnc3n2N=C(c2ccc(Br)cc2)CS3)cc1`, the Potency was active: 10 µM.
With `CC(=O)c1c(C)nc(-c2ccc(Cl)cc2)nc1NC(=O)C(C)C` the activity change, negative = inhibition was “inactive”.
In the case of `CCS(=O)(=O)N1CCCC(C(=O)NCc2ccc3c(c2)OCO3)C1` (centres undefined), the activity change, negative = inhibition is reported as inconclusive: -11.7%.
In the case of `COC(=O)Cc1cc(=O)n(-c2nc3ccccc3s2)[nH]1`, the Potency is reported as inconclusive: 12.6 µM [falling, single point].
For `CCn1c(=O)cc(OCC(=O)Nc2ccccc2C#N)c2ccccc21`, the Potency was inconclusive: 10 µM [rising, partial curve].
For `CC(=O)c1cccc(NC(=O)CN(c2ccc(F)cc2)S(C)(=O)=O)c1`, the activity change, negative = inhibition was inconclusive: 18.2%.
With `O=c1cc(-c2ccco2)oc2ccc(Cl)cc12` the activity change, negative = inhibition was “inactive”.
With `CCOC(=O)CCc1c(C)nc2ncnn2c1C` the activity change, negative = inhibition was inconclusive: -12.9%.
With `CCC(C)C(NC(=O)C1CCC(C)CC1)C(=O)NCc1cccnc1` (centres undefined) the activity change, negative = inhibition was inconclusive: -12.4%.
With `Cn1c(=O)c2c(n(C)c1=O)=NC1(CCCCC1)N=2` the activity change, negative = inhibition was inconclusive: -4.17%.
For `Cn1c(/C=N/c2nc3ccccc3[nH]2)nc2ccccc21`, the activity change, negative = inhibition was “inactive”.
In the case of `CCOC(=O)c1ccccc1NC(=O)CSc1nc2ccccc2o1`, the Potency is reported as inconclusive: 12.6 µM [rising, single point].
With `COc1ccc(NC(=O)c2c(OC)cccc2OC)c(OC)c1` the activity change, negative = inhibition was “inactive”.
In the case of `CCN(CC)C(=O)c1ccc(NS(=O)(=O)c2ccccc2)cc1`, the Potency is reported as inconclusive: 0.0251 µM [rising, full curve].
With `COc1cc2c(=O)n(Cc3ccccc3)c(=O)n(CC(=O)NCC3CCCO3)c2cc1OC` (centres undefined) the activity change, negative = inhibition was inconclusive: 9.11%.
In the case of `CN(C)c1ccc(-c2ccc3ncnc(NCc4ccccc4)c3c2)cc1`, the activity change, negative = inhibition is reported as inconclusive: 11.2%.
For `CNC(=O)[C@H](C)[C@H]1C[C@]1(C)[C@H](NC(=O)OCc1ccccc1)c1ccccc1`, the activity change, negative = inhibition was “inactive”.
In the case of `COc1ccc(CN2CCN(c3ncccn3)CC2)c(OC)c1`, the activity change, negative = inhibition is reported as inconclusive: -3.24% [at 7.6 µM].
In the case of `CSCCC(NS(=O)(=O)c1ccc(Cl)cc1)C(=O)OCC(=O)N1CCOCC1` (centres undefined), the activity change, negative = inhibition is reported as inconclusive: -5.34%.
In the case of `O=C(Nc1nc(-c2cccs2)cs1)c1ccc(Cl)s1`, the activity change, negative = inhibition is reported as inconclusive: 11.7%.
In the case of `O=C(CCC(=O)N(CC(=O)NC1CCCCC1)c1ccc2c(c1)OCO2)Nc1ccccn1`, the activity change, negative = inhibition is reported as “inactive”.
With `Cc1cccc(N(C)c2cc(C)nc3nc(C)nn23)c1` the Potency was inconclusive: 12.6 µM [rising, partial curve].
In the case of `Cc1c(C)n(Cc2ccccc2)c2ncnc(N)c12`, the Potency is reported as inconclusive: 2.51 µM [falling, full curve].
For `CCCCCC(=O)Nc1ccc(S(=O)(=O)Nc2nccnc2OC)cc1`, the activity change, negative = inhibition was “inactive”.
For `CC(=O)NCCNc1ncnc2ccc(-c3ccccc3Cl)cc12`, the Potency was inconclusive: 12.6 µM [rising, single point].
With `CCOc1ccc(OCC)c(NC(=O)c2ccc(CNc3c(N4CCOCC4)c(=O)c3=O)cc2)c1` the Potency was inconclusive: 12.6 µM [rising, single point].
For `C[N+](C)(C)C/C=C1/COCO1`, the activity change, negative = inhibition was “inactive”.
In the case of `Cc1cc(NCCCn2ccnc2)n2nc(-c3ccc(F)cc3)cc2n1`, the activity change, negative = inhibition is reported as “inactive”.
In the case of `COC(=O)CCC(=O)Nc1sc2c(c1C#N)CCCC2`, the activity change, negative = inhibition is reported as inconclusive: 17.2%.
In the case of `CCOC(=O)C1=C(c2ccccc2)NC(SCC(=O)NC2CCCCC2)=C(C#N)C1c1ccco1` (centres undefined), the activity change, negative = inhibition is reported as “inactive”.
In the case of `COc1ccc(NC(=O)C2CCCN2c2ccc(OC)c(OC)c2)cc1OC` (centres undefined), the Potency is reported as inconclusive: 6.31 µM [rising, partial curve].
With `O=c1[nH]cnc2c1oc1ccccc12` the activity change, negative = inhibition was inconclusive: -5.22%.
With `CCNc1ncc2nc(-c3cccs3)c(=O)n(-c3ccccc3)c2n1` the Potency was inconclusive: 0.398 µM [rising, full curve].
In the case of `NS(=O)(=O)c1ccc(NC(=O)CSc2nnc(-c3cnccn3)n2-c2ccccc2)cc1`, the activity change, negative = inhibition is reported as “inactive”.
For `Cc1[nH]nc2c1C(c1ccccc1F)NC2=O` (centres undefined), the activity change, negative = inhibition was “inactive”.
With `CSc1ccc(C2C(C#N)=C(N)Oc3cc4c(cc32)OCO4)cc1` (centres undefined) the activity change, negative = inhibition was inconclusive: 14.3%.
In the case of `O=C(CCCn1c(=O)c2ccccc2n(Cc2ccccc2)c1=O)NCc1ccco1`, the activity change, negative = inhibition is reported as inconclusive: 10.4%.
With `CCOc1cc(C2CC(=O)Nc3cc(C)c(C)cc32)ccc1O` (centres undefined) the activity change, negative = inhibition was “inactive”.
In the case of `COc1ccccc1OCCCn1c(=O)oc2ccc(C)cc21`, the activity change, negative = inhibition is reported as “inactive”.
In the case of `COc1ccccc1CNC(=O)CNC(=O)Cn1cnc2ccccc2c1=O`, the activity change, negative = inhibition is reported as inconclusive: 6.37%.
In the case of `COc1cc(C(c2sc3nc(C)nn3c2O)N2CC(C)OC(C)C2)cc(OC)c1OC` (centres undefined), the Potency is reported as active: 12.6 µM.
With `Cn1c(Cn2c(=O)sc3ccccc32)nnc1SCC(=O)N1CCCc2ccccc21` the activity change, negative = inhibition was “inactive”.
In the case of `COC(=O)c1ccccc1NC(=O)c1cc(OC)cc(OC)c1`, the Potency is reported as inconclusive: 12.6 µM [rising, partial curve].
For `N#Cc1nc(-c2ccco2)oc1N1CCCC1`, the Potency was inconclusive: 12.6 µM [rising, partial curve].
In the case of `C/C=C/Cn1c(N(C)Cc2ccccc2)nc2c1c(=O)[nH]c(=O)n2C`, the Potency is reported as active: 10 µM.
With `COc1ccc(CCn2c(-c3ccco3)nc3ccccc3c2=O)cc1OC` the Potency was inconclusive: 0.2 µM [rising, full curve].
For `COc1ccc(-n2c(=O)c3c4c(sc3n(CC(=O)NCc3ccco3)c2=O)CCC4)c(OC)c1`, the activity change, negative = inhibition was inconclusive: -32.4%.
In the case of `COc1ccc(OC)c(NC=C2C(=O)OC(C)(C)OC2=O)c1`, the Potency is reported as inconclusive: 12.6 µM [rising, partial curve].
